# Assay results as given in PubChem BioAssay AID686979 (National Center for Advancing Translational Sciences (NCATS), 2013).
# Out of some 420,000 compounds screened, about 50,000 (12%) were called active. The inconclusive results got no clear call from the source; some entries with a clear call stand among them for comparison. The call rests on the fitted dose curve; in most records, active means well fitted inhibition curve with a large enough effect; inconclusive means small, poorly fitted or top-dose-only effect; inactive means flat fitted curve, though single readings scatter. Potencies of inconclusive entries are left out as doubtful fits.
# Experiment: qHTS for Inhibitors of human tyrosyl-DNA phosphodiesterase 1 (TDP1): qHTS in cells in presence of CPT; further: nearly all actives have a fitted effect of over 55% in size
# Details: chicken DT40 Tdp1-/-;hTDP1 cells + 20 nM CPT, ATP luminescence, 48 h; activity change, negative = growth inhibition: at 46.2 µM (top of the series) unless noted
# Outline: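 Chicken DT40 Tdp1-/- cells complemented with human TDP1, 400 cells/well, exposed to compounds plus 20 nM camptothecin for at least 48 h at 37 C; viability read as ATP content by CellTiter-Glo luminescence.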
# On the % scale 0 is the no-effect control and ±100 the full control effect; potency means the concentration at half of the fitted maximal effect; tags describe the fitted curve by direction and shape.
SMILES,Potency,"activity change, negative = growth inhibition"
Cc1cc(O)c(C2(O)C(=O)Nc3cc(Br)ccc32)cc1C (stereo unspecified),"inconclusive [inhibitor, single point]",
COC(=O)c1oc2ccccc2c1-n1cccc1,,inactive: -1.12%
CCN(c1ccccc1)c1ncnc2c1cnn2-c1ccc(C)cc1C,active: 9.2 µM,
COc1cc(CN2CCNC(=O)C2CC(=O)NCCCC2CCCC2)cc(OC)c1 (stereo unspecified),,inactive: -4.72%
CCCc1c(C)c2ccc(O)c(CN3CCN(c4ccc(F)cc4)CC3)c2oc1=O,"inconclusive [inhibitor, single point]",
COC(=O)c1c(Oc2ccc(C(C)=O)cc2)nnc(-c2ccccc2)c1-c1ccccc1,active: 18.4 µM,
COc1ccccc1CNC(=O)CN1C(=O)CSc2ccc(S(=O)(=O)N3CCCCC3)cc21,"inconclusive [inhibitor, single point]",
CC1=C(C)/C(=N/OC(=O)c2cccc([N+](=O)[O-])c2)C=CC1=O,active: 20.6 µM,
Cc1cccc(-c2nc(CSc3nc4c(c(=O)[nH]3)CCC4)c(C)o2)c1,"inconclusive [inhibitor, single point]",
Cc1cc(C)nc(SCC(=O)Nc2ccc(S(=O)(=O)N3CCCCC3)cc2)n1,"inconclusive [inhibitor, single point]",
CC(=O)c1ccc(-c2cccs2)s1,,inactive: 10.8%
CC1=C(C(=O)N2CCN(c3cccc(C(F)(F)F)c3)CC2)C2(CCCCC2)OC1=O,"inconclusive [inhibitor, single point]",
CCOC(=O)C1=C(O)c2ccccc2C(=O)/C1=C\c1ccc(CC)cc1,active: 20.6 µM,
CCc1ccccc1Oc1nc(NCc2ccccc2)nc2ccsc12,"inconclusive [inhibitor, single point]",
CCOC(=O)c1ccc(NC(=S)NNC(C)(C)C)cc1,active: 5.8 µM,
COc1ccc(OCC(=O)N2CCN(C(=O)COc3ccccc3)CC2)cc1,,inactive: -6.66%
CCOC(=O)N1C(=O)[C@@](CC)(c2ccccc2)N1C(=O)OCC,active: 8.2 µM,
O=C(NN=Cc1ccccc1)C(Oc1ccccc1)c1ccccc1 (stereo unspecified),"inconclusive [inhibitor, single point]",
CCOc1ccc(-c2csc(NC(=O)C3CCCO3)n2)cc1 (stereo unspecified),"inconclusive [inhibitor, single point]",
CCN(C(=O)c1cc2c(=O)[nH]c3ccc(C)cc3c2s1)c1cccc(C)c1,"inconclusive [inhibitor, partial curve, poor fit]",
COC(=O)CS(=O)(=O)c1nnc([C@H](Cc2ccccc2)NC(=O)OC(C)(C)C)o1,active: 1.46 µM,
O=C(CC1C(=O)NCCN1Cc1c(F)cccc1Cl)NCCC1=CCCCC1 (stereo unspecified),"inconclusive [inhibitor, single point]",
O=C(NCCOc1ccccc1)c1cccc2c1C(=O)c1ccc(Cl)cc1S2(=O)=O,"inconclusive [inhibitor, single point]",

SMILES,Potency,"activity change, negative = growth inhibition"
C/C(=N\NC(=O)c1ccn(C)n1)c1ccc(NC(=O)C2CCC2)cc1,"inconclusive [inhibitor, single point]",
COc1cc(Br)cc(/C=C/c2ccc3cccc(O)c3n2)c1OC,"inconclusive [inhibitor, single point]",
C=C[C@@H]1c2c(F)cccc2N(S(=O)(=O)c2ccc(C)cc2)[C@H](c2ccc(OC(C)=O)cc2)C1(C#N)C#N,"inconclusive [inhibitor, single point]",
COc1ccc(-n2ncc3c(=O)n(CC(=O)Nc4ccc5c(c4)OCCO5)cnc32)cc1,,inactive: -21.2%
NC(=O)c1ccsc1NC(=O)COC(=O)C1CC2CCCC(C1)C2=O (stereo unspecified),,inactive: -3.42%
COc1cccc(NC(=O)N(C)C[C@@H]2Oc3ncc(Br)cc3C(=O)N([C@@H](C)CO)C[C@H]2C)c1,,inactive: -4.55%
Cc1ccc(S(=O)(=O)Nc2cccc(-c3cn4cccc(C)c4n3)c2)cc1,"inconclusive [inhibitor, single point]",
CC(NC(=O)CN(C)CC(=O)Nc1ccc(Cl)cc1)c1ccc(F)cc1 (stereo unspecified),"inconclusive [inhibitor, single point]",
Cc1c(C(N)=O)c(N)c(C(=O)c2ccccc2)n1-c1ccccc1,,inactive: -19%
O=C(/C=C/c1cccnc1)c1ccc([N+](=O)[O-])cc1,,inactive: -29.8%
Cc1ccc(NC(=O)CCCOc2ccccc2)cc1S(=O)(=O)N1CCOCC1,"inconclusive [inhibitor, single point]",
CC(C)n1c(CN(C)c2ccccc2)nc2ccccc21,"inconclusive [inhibitor, single point]",
Nc1cnccc1Oc1cccc(C(F)(F)F)c1,,inconclusive: -35.8% [inhibitor]
COc1ccc(N2CCN(CC(=O)c3ccc(O)c(C)c3O)CC2)cc1,"inconclusive [inhibitor, single point]",
COc1ccc(-c2nc(CN(CC3CCC(=O)N3)C(C)C)c(C)o2)c(C)c1C (stereo unspecified),"inconclusive [inhibitor, single point]",
Cc1ccc(C2C(N)C(=O)N2c2ccc(C)cc2)cc1 (stereo unspecified),,inactive: 14%
CC(=O)Nc1ccc(Nc2cc(C)nc3c(-c4ccc(Cl)cc4)cnn23)cc1,active: 18.4 µM,
Cc1cccc(N2CCN(C(=O)c3c(C)oc4ncnc(N5CCCCC5)c34)CC2)c1C,active: 16.4 µM,
Cc1ccc(C)c(Nc2nc3c(S(=O)(=O)c4ccc(C(C)C)cc4)nnn3c3ccsc23)c1,active: 14.6 µM,
COc1ccc2cc(C(N)=O)/c(=N\NC(=O)c3ccccc3)oc2c1,"inconclusive [inhibitor, single point]",
O=C(CNC(=O)c1ccc(Cl)cc1)OCCN1C(=O)c2ccccc2C1=O,,inactive: 0.495%
N#CCCN(C(=O)CN1CCN(S(=O)(=O)c2ccc3c(c2)OCCO3)CC1)c1ccc(F)cc1,,inactive: -25.9%
Cc1ccc2nc3c(c(C(=O)OCC(=O)N(C)C4CCS(=O)(=O)C4)c2c1)CCCC3 (stereo unspecified),"inconclusive [inhibitor, single point]",
